# Measurements taken from publication PMC6919601, “Identification of Plasmodium dipeptidyl aminopeptidase allosteric inhibitors by high throughput screening” (PLoS ONE, 2019).
# Hit rate of the full screen: of about 110,000 compounds, about 230 (0.21%) showed an effect of 50% or more. The list shows a part of the results.
# Molecular target: DPAP1 (Plasmodium falciparum, UniProt Q8IIJ9)
# Test: primary screen, percent inhibition; read by cleavage of a fluorogenic dipeptide substrate; higher = more effect of the substance
# Parameters: species or system P. falciparum D10 trophozoite lysates; single well
# 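Note: 30 min substrate incubation versus DMSO and 10 µM JCP410 controls.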
# Chain of DPAP1 (Q8IIJ9 whole entry, looked up): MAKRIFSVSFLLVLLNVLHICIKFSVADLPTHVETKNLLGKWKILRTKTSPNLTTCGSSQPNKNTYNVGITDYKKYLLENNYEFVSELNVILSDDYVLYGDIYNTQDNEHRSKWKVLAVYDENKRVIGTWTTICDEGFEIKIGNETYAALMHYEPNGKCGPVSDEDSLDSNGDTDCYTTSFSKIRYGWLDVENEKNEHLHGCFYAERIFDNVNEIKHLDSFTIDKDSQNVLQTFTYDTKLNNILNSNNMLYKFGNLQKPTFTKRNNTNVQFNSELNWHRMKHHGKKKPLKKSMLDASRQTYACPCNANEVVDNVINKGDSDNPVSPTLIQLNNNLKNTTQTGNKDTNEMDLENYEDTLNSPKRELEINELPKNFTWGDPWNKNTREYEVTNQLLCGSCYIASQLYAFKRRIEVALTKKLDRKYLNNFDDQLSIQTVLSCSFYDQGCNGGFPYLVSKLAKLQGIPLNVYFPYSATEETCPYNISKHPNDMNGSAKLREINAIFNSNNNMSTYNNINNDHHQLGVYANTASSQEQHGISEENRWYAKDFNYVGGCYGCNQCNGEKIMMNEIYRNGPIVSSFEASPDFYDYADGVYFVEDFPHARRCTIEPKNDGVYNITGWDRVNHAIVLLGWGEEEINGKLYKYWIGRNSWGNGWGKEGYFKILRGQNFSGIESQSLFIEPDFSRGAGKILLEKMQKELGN
row,Compound,% Inhibition @ 10 uM [%]
1,CCOC(=O)C1=C(C)N=c2s/c(=C\c3ccc(Cl)cc3Cl)c(=O)n2C1/C=C/c1ccccc1 (centres unmarked),-3.74
2,C=CCNC(=O)c1c(O)nc2c(c1O)CCCC2,-0.458
3,CCN(Cc1ccccc1)S(=O)(=O)c1ccc2[nH]c3c(c2c1)CCCC3,1.21
4,CC(C)Cn1c(CN2CCOCC2)nc2c1c(=O)n(C)c(=O)n2C,2
5,Cn1cc(S(=O)(=O)N2CCCC2)cc1C(=O)NCCc1ccc(Cl)cc1,-0.361
6,COc1ccc(-c2c(C)nn3c(C(F)(F)F)cc(C)nc23)cc1OC,-2.91
7,CC(C)(C)C(=O)Nc1ccc(N2CCN(S(C)(=O)=O)CC2)cc1,-4.49
8,Cc1noc(C)c1C1(O)CCCCCCCCC1,10.1
9,N#CC1=C(Nc2ccc(Br)cc2)CCC1,10.5
10,CCCC(=O)Nc1ccccc1NC(=O)c1ccc(Cl)cc1,-1.84
11,CCNC(=O)/C(C#N)=C/c1c(Oc2ccccc2C)nc2ccccn2c1=O,-1.43
12,Cn1c(C(Cc2ccccc2)NC(=O)C(C)(C)C)nc2ccccc21 (centres unmarked),-1.29
13,CCOC(=O)c1ccc2nsnc2c1,-11.9
14,Cc1ccc(SC2=NS(=O)(=O)c3ccccc32)c(C)c1,-5.94
15,Cc1ccccc1-c1nc2s/c(=C\c3ccccc3F)c(=O)n2n1,-1.18
16,CCN1CCC(C#N)(NC(=O)[C@H](Cc2c(F)cccc2F)NC(=O)c2ccc(-c3ccccc3Cl)cc2)CC1,-3.48
17,COc1ccc2nc(NC(=O)c3cc(N)cc(N)c3)sc2c1,7.16
18,COc1ccc(C)cc1NC(=O)CN(Cc1ccc(F)cc1)S(=O)(=O)c1ccccc1,-5.35
19,O=C(NC(C(=O)c1ccccc1)N1CCCCCC1)c1ccco1 (centres unmarked),-5.14
20,Cc1cc(C)c2oc(-c3ccc(NC(=O)c4ccc(C)c([N+](=O)[O-])c4)cc3)nc2c1,3.03
21,O=C1C2ON(c3ccccc3)C(c3ccc(O)cc3)C2C(=O)N1c1ccccc1 (centres unmarked),-6.08
22,CCCCn1/c(=N\C(=O)/C=C/c2ccccc2)c(C(=O)OCC)cc2c(=O)n3ccccc3nc21,-0.363

row,Compound,% Inhibition @ 10 uM [%]
1,COc1ccccc1-c1cc(=O)n(CC(=O)N2CCOCC2)c2c1CCCC2,2.04
2,Cc1ccccc1NC(=O)c1ccc(C)c(S(=O)(=O)N2CCOCC2)c1,2.4
3,CCOc1cccc(/C=C2\SC(c3ccc(C)cc3)=NC2=O)c1O,31.4
4,N#C/C(=C/c1ccc(O)cc1)c1nc(-c2ccccc2)cs1,15.7
5,CCOC(=O)/C(C#N)=C/NC(=O)NC(C)(C)C,-4.06
6,C=CCSc1ncc(Cl)c(C(=O)NCc2ccc(C)cc2)n1,-1.16
7,Oc1cc(-c2ccccc2)nc2nc(C(F)(F)F)nn12,-4.78
8,CC[C@@H](C)[C@H](NC(=O)c1cccc(CN)c1)C(=O)N[C@@H](CCc1ccccc1)C(=O)CO,-3.97
9,CCOC(=O)c1cc2c(=O)n3ccccc3nc2n(CCCO)c1=N,-1.92
10,CCn1cc(C(=O)O)c(=O)c2cc(Br)ccc21,-3.56
11,COc1cccc(-c2nc(-c3ccc(Br)cc3)no2)c1,3.53
12,CCOC(=O)N1CCC2(CC1)OC(=O)C(C)=C2C(=O)NC(C)CC (centres unmarked),-2.13
13,Cc1ccccc1OCCn1c(C(C)O)nc2ccccc21 (centres unmarked),-0.551
14,O=S(=O)(c1ccc(F)cc1)N1CCN(Cc2ccccc2)CC1,-10.2
15,c1ccc(C(CN2CCOCC2)c2ccccc2)cc1,-1.78
16,CCS(=O)(=O)N1CCC(C(=O)N2CCCCC2)CC1,-2.99
17,COc1ccc(-c2cc3cc(Br)ccc3oc2=O)cc1,-0.693
18,CC(C)CCNc1ncnc2onc(-c3ccc(Cl)cc3)c12,8.62
19,Cc1ccc(OCCn2ncc3ccccc3c2=O)c(C)c1,3.25
20,CCNC(=O)/C(=C\c1ccc2c(c1)OCO2)NC(=O)c1ccccc1Br,-4.49
21,O=C(Nc1cccc2cccnc12)c1ccccc1F,1.28
22,COc1ccc(NCC2CCCCC2)c(OC)c1,-1.42

row,Compound,% Inhibition @ 10 uM [%]
1,CC(C)NS(=O)(=O)c1cn(CC(=O)NC2CCCCCCC2)cc1S(=O)(=O)NC(C)C,-1.52
2,CC(C)(C)C1CCc2c(sc(NC(=O)C3CCCCC3C(=O)O)c2C(N)=O)C1 (centres unmarked),3.72
3,CN1CCC2(CC1)NC(=O)NC2=O,-1.99
4,N#CCNC(=O)[C@@H](Cc1ccccc1)NC(=O)OCc1ccccc1,-6.56
5,COc1cc(OC)c(CN2CCSCC2)cc1Br,3.9
6,COc1cc(Br)cc(/C=C2/SC(=O)NC2=O)c1O,1.29
7,Cc1ccc2nc3c(O)n(CCCN4CCCC4=O)cnc-3c2c1,3.24
8,CC(=O)Nc1ccc(N2C(=O)CC(Sc3nccc(C)n3)C2=O)cc1 (centres unmarked),-4.49
9,O=C(CCc1nnc2ccc(N3CCOCC3)nn12)NCCN1CCCC1,-0.544
10,Cc1cccc(NC2=NS(=O)(=O)c3ccccc32)c1,-2.5
11,COc1ccc(C2=CC(c3c(F)cccc3Cl)n3ncnc3N2)cc1 (centres unmarked),-3.37
12,CCc1nn(CC(=O)NCCCSC2CCCCC2)c(=O)c2cc3sccc3n12,6.46
13,CCOc1ccc(C(=O)N2CCn3c2nc2ccccc23)cc1,-3.23
14,Cc1ccc(C(C)C)c(Oc2ccc(NC(=O)CCCC(=O)O)cc2)c1,2.32
15,Cc1[nH]nc(-c2ccc(OCC(=O)O)cc2O)c1Oc1ccc(Cl)cc1Cl,-3.92
16,N#C/C(=C/c1cc(Br)cs1)C(N)=S,1.7
17,O=C(COc1ccc(Br)cc1)Nc1ccc2ccccc2c1,2.93
18,CCOC(=O)c1c(N)sc2c1CCC(C(C)(C)C)C2 (centres unmarked),1.27
19,O=C(NC(Cc1ccccc1)c1ccc2c(c1)OCCCO2)c1cccnc1 (centres unmarked),2.17
20,CN(Cc1ccccc1)C(=O)C1CCCN(c2ncnc3onc(-c4ccc(F)cc4)c23)C1 (centres unmarked),2.09
21,CCOc1ccc(C(=O)CCc2nc3ccccc3s2)cc1,-7.46
